In all, about 33,000 sequences were measured (“E-score (-0.5 to 0.5)”: median about -0.04, highest 2% from about 0.36 on). The list shows a part of the results.
Each sequence was assayed against T1, Hmlalpha2 (UniProt P0CY09) (assay: PBM E-score (8-mer binding enrichment) (E-score (-0.5 to 0.5)); higher = stronger / more preferred TF binding; most listed sequences are background and not binding sites). Conditions: protein concentration: 200 nM; construct: GST-full length.
T1 sequence: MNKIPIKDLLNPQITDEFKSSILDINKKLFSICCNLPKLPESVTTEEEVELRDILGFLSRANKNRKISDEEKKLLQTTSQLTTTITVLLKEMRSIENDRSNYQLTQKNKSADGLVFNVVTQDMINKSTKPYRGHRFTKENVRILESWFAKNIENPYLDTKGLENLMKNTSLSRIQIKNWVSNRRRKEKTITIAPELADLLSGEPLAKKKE
Summary of the method: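 E-scores (a modified Wilcoxon-Mann-Whitney statistic) were assigned by the Universal PBM Analysis Suite to every ungapped eight-base word pooled with its reverse complement. The input came from universal all-10-mer Agilent arrays made double-stranded by primer extension and probed with GST-tagged yeast transcription factors at about 100-200 nM. Fluorescent anti-GST detected bound protein, and masliner normalised the scans.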

Sequence	PBM E-score
CACGGCAC	0.128
CTTGTGGC	-0.221
ATTATAAT	0.157
TAGATTAA	0.209
CGGCTGTC	-0.238
ACACTAAT	0.0478
AACAATCC	0.121
CAATCAAA	0.0602
CCCCTGTA	0.034
AGACTCTA	-0.145
CGAGCGTC	-0.25
CCTTCGAA	-0.261
CCCGGCTC	-0.243
ATTATTGC	0.184
CCGCCCGC	-0.173
CCTTGTAA	0.454
AAGCCTCG	-0.0722
GATCAGAC	-0.139
ACACCATG	0.235
CCAAACAA	0.0549
ACGAATAC	0.325
AATACGGC	0.0587
AGTTGTGA	0.103
GGAAACAA	-0.127
ATTCCTTC	-0.239

Sequence	PBM E-score
GAGATATA	-0.0803
GCAGGAGC	-0.115
CACGTCGC	-0.0575
ATCCACAA	-0.0471
ACGGCAGT	-0.171
CAGCTGAC	-0.0455
CACACTCG	0.0994
CTATCGGC	-0.203
AAGGCGAC	-0.218
CGTTGTGC	0.126
AATGTATC	0.284
CGCATGAA	0.0737
AGAAGAAC	-0.0198
CACACACA	0.228
AGGCACAT	-0.0744
AAACATCC	0.17
CTACACGA	0.451
AACATGAG	0.379
ATGGCAAA	-0.00556
CTAACTAG	0.109
CCTGCGAA	-0.0687
GCGTCGAA	0.0568
CAGCAGAA	0.0468
CCCATCCC	-0.249
TCCCGTCA	0.0899

Sequence	PBM E-score
CTCCACAG	-0.299
CGCGATGA	0.073
AATCGAGG	-0.0941
AATGTCTG	0.00213
AAAACCGA	-0.167
AGCAGGGA	-0.119
ATTAATCA	0.127
GAACGACC	-0.307
CCTGAAGA	-0.207
TCATGACA	0.275
ACAACCAG	0.226
ATGTACCC	0.148
CAAGTGAG	0.00679
AATAGAGT	-0.124
CAATGTAA	0.435
TAAAACGA	0.136
ACATTCCA	0.131
TGCTTCAA	0.109
ACCTGCCA	-0.0979
GGCTGCAA	-0.0588
ATCCCAGA	-0.3
CCAAAACA	0.24
TCTATGAA	-0.025
CCACAGAG	-0.0375
ACGGAAAA	-0.197

Sequence	PBM E-score
CGCGAGAG	-0.135
AACCGGAC	-0.0767
ATGGTCAC	-0.0853
AGTCACAT	0.0821
TGTGGTAA	0.265
ATCCTCGA	0.0453
TAATCGGA	0.0897
CTCACAAC	0.107
CGTTAAGA	0.281
AGGCCGCC	-0.326
GAGATCCC	-0.128
ACCGGCCA	-0.247
AATGGATC	-0.113
ACCTCAGA	-0.201
GAGATAAA	0.0648
ACCTCTCG	-0.221
AGGCAGTG	-0.0335
ATGTAGCG	0.181
ATAGAGGA	-0.131
ATAGGGTG	-0.223
GTTGGATA	-0.0282
CCATCCAC	-0.24
TCATATCA	0.117
AACTGATC	0.0828
ATTATCAA	0.24

Sequence	PBM E-score
CCGCAACG	0.0871
AGGCTCTA	-0.3
CCCATCGG	-0.119
ACTCTTGG	-0.117
CTCCGACA	0.00915
TCAAGAGA	-0.0868
ATCGCTCC	-0.233
AGTCATCC	-0.134
CATAAGGA	0.00441
CAGCCCGG	-0.22
GCGCGTAC	0.225
CAGGATCG	-0.0832
AAAGAGAG	-0.121
ACTAGCGC	-0.144
CCCGGAAA	-0.154
CACTACCC	-0.18
ACGACATC	0.0415
ACTGGCGA	-0.0596
CTGCCGAA	-0.0785
AATGGAAG	-0.112
CCTGGAAG	-0.387
ACACCGAG	0.128
ACTAATCA	0.0473
CAATTTCG	-0.0858
ACCACCCG	-0.232

Sequence	PBM E-score
AACGTATG	0.215
AGGAGTTA	-0.0534
TACGGGAA	-0.224
CGGGAGAA	-0.177
CAAGAGGG	-0.15
ATGGATGA	-0.117
AGGGCTAT	-0.121
ACCTAGTC	-0.177
CCTCATGA	-0.085
TCACATCA	0.00787
GACCACCC	-0.32
ATCCGTTG	-0.024
TACACGAA	0.456
CCTATCCA	-0.143
ACCTTGAA	0.185
ATACGATA	0.143
GCCTGGCC	-0.304
CCGGAGCC	-0.185
GACTATGC	-0.0295
AAGCCTTG	-0.0991
ACGTAAGT	0.216
AAATTACG	0.309
ACGAACTG	-0.0912
AGGGATGC	-0.363
ACTATGAC	-0.069

Sequence	PBM E-score
ATTTGTCG	0.0833
GGGACCAA	-0.237
GCTCAGCC	-0.167
AAGGATTC	-0.0197
CAAACTAA	0.163
AGTAGTAG	0.0127
CCTTACAA	0.173
AATATACT	0.0111
ACTTGCCC	0.0516
CTCCGCCA	-0.207
GAGGGGCC	-0.278
CGATCCCG	-0.265
TATGGTGA	-0.0973
AGCGTGGC	-0.0937
CTGTCGGC	-0.259
GATTTGAC	0.0978
CCAGCTGC	-0.33
AATCTATG	0.107
ATAAGCTC	-0.121
ACACGCTG	0.355
CGAAACCC	-0.121
CATAGTTA	0.187

From the supplement of paper PMC3334620
